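Five concentrations, 48 hours, 96-well plates. GI50 marks 50% less growth. TGI: total growth inhibition.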 Square brackets hold non-standard residues; d marks the D form. Peptide text beside a SMILES is read from it. * marks the point of attachment. Lauroyl = CCCCCCCCCCCC(=O)*; Aib = CC(C)(N)C(=O)O; βAla = NCCC(=O)O
Tested on: NCI-H322M lung
Test: inhibition of tumour cell growth, NCI panel, 48 h

Row | Structure (SMILES) | GI50 [µM] | TGI [µM]
1 | CCCn1cnc2c(c1=N)C(c1ccc(Cl)cc1)c1sc3c(CC)cccc3c1O2 (stereo not drawn) | 3.11 | 24.2
2 | C=C(C=O)[C@@H]1CC[C@]2(CO)CC[C@]3(C)[C@H](CC[C@@H]4[C@@]5(C)CCCNC(C)(C)[C@@H]5CC[C@]43C)[C@@H]12 | 29.4 | > 100
3 | CCCCCCCCCCCC(=O)NC(C)(C)C(=O)N1CCCC1C(=O)NC(C)(C)C(=O)NC(C)(C)C(=O)N1CCCC1C(=O)NC(C)(C)C(=O)NC(C)(C)C(=O)N1CCCC1C(=O)NC(C)C(=O)NCCC(=O)NC(C)C(=O)NC(C)(C)C(=O)NC(C)(C)C(=O)NC(C)(C)C(=O)NCCC(=O)NC(C)(C)C(=O)NC(C)(C)C(=O)NC(C)(C)C(=O)NC(C)C(=O)NCCC(=O)O (stereo not drawn) (Lauroyl-[Aib]P[Aib][Aib]P[Aib][Aib]PA[βAla]A[Aib][Aib][Aib][βAla][Aib][Aib][Aib]A[βAla]-OH; configuration not given here) | 0.428 | 1.29
4 | CC1(C)[C@@H](O)CC[C@]2(C)[C@H]3CC[C@@H]4[C@H]5[C@H](C(=O)/C=C\c6ccccn6)CC[C@]5(O)CC[C@@]4(C)[C@]3(C)CC[C@@H]12 | 4.17 | 35

Source: PubChem BioAssay (NCI)
